In article PMC3311221 (Nature cell biology, 2011):

Biological target: the molecule itself
Experiment: SEC + other: glycerol gradient sedimentation

B1: human TFG amino-terminus ([…]), recombinant (domain or fragment)
chain: not shown
- stoichiometry N: 8
